# The list shows a part of the results. The list includes weakly bound sequences.
# Biological target: T1, MBP-FoxP3dN (UniProt Q99JB6)
# T1 sequence: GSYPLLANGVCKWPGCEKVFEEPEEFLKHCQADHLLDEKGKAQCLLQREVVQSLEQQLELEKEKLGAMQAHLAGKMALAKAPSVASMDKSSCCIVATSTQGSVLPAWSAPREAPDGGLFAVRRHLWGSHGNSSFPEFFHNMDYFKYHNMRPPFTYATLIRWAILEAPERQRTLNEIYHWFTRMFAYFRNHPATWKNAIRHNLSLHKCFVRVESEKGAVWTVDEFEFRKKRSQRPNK
# Experiment: PD-seq (MBP pull-down with sequencing)
# Conditions: 20 mM Tris-HCl pH 7.5, 100 mM NaCl, 1.5 mM MgCl2, 0.4 uM protein, 0.1 uM dsDNA library, 30 min, room temperature, amylose pull-down; high values mean tight binding; double strand, one strand shown
row,Sequence,binding signal (RPM ratio (pull-down/input))
1,GATGATTGTTCTCCCAGCTGATGAATTCGGCAGTTCGAGTAAACAAATTTTCCTAATCTTTCTGTTCAAGCGCCATCTAC,0.883
2,GATGATTGTTCTCCCAGCTGATGAATTAGTAGCGTCGAGTAAACAAATTTTCCTAATCTTTCTGTTCAAGCGCCATCTAC,1.42
3,GATGATTGTTCTCCCAGCTGATGAATTAGAATTGTCGAGTAAACAAATTTTCCTAATCTTTCTGTTCAAGCGCCATCTAC,0.707
4,GATGATTGTTCTCCCAGCTGATGAATTTGACATTTCGAGTAAACAAATTTTCCTAATCTTTCTGTTCAAGCGCCATCTAC,1.58
5,GATGATTGTTCTCCCAGCTGATGAATTACCTGTGTCGAGTAAACAAATTTTCCTAATCTTTCTGTTCAAGCGCCATCTAC,0.458
6,GATGATTGTTCTCCCAGCTGATGAATTCGGGCACTCGAGTAAACAAATTTTCCTAATCTTTCTGTTCAAGCGCCATCTAC,0.406
7,GATGATTGTTCTCCCAGCTGATGAATTCGCCCGGTCGAGTAAACAAATTTTCCTAATCTTTCTGTTCAAGCGCCATCTAC,0.207
8,GATGATTGTTCTCCCAGCTGATGAATTGGACCCCTCGAGTAAACAAATTTTCCTAATCTTTCTGTTCAAGCGCCATCTAC,0.269
9,GATGATTGTTCTCCCAGCTGATGAATTCGGTGCGTCGAGTAAACAAATTTTCCTAATCTTTCTGTTCAAGCGCCATCTAC,1.02
10,GATGATTGTTCTCCCAGCTGATGAATTTAGGGCCTCGAGTAAACAAATTTTCCTAATCTTTCTGTTCAAGCGCCATCTAC,0.562
11,GATGATTGTTCTCCCAGCTGATGAATTTCTACGATCGAGTAAACAAATTTTCCTAATCTTTCTGTTCAAGCGCCATCTAC,0.215
12,GATGATTGTTCTCCCAGCTGATGAATTATTGGCATCGAGTAAACAAATTTTCCTAATCTTTCTGTTCAAGCGCCATCTAC,1.27
13,GATGATTGTTCTCCCAGCTGATGAATTATAGGATTCGAGTAAACAAATTTTCCTAATCTTTCTGTTCAAGCGCCATCTAC,0.361
14,GATGATTGTTCTCCCAGCTGATGAATTGCAAATATCGAGTAAACAAATTTTCCTAATCTTTCTGTTCAAGCGCCATCTAC,1.17
15,GATGATTGTTCTCCCAGCTGATGAATTGGATAGCTCGAGTAAACAAATTTTCCTAATCTTTCTGTTCAAGCGCCATCTAC,0.419
16,GATGATTGTTCTCCCAGCTGATGAATTCGAGCCTTCGAGTAAACAAATTTTCCTAATCTTTCTGTTCAAGCGCCATCTAC,1.57
17,GATGATTGTTCTCCCAGCTGATGAATTCGCTCGGTCGAGTAAACAAATTTTCCTAATCTTTCTGTTCAAGCGCCATCTAC,0.208
18,GATGATTGTTCTCCCAGCTGATGAATTGAGTTATTCGAGTAAACAAATTTTCCTAATCTTTCTGTTCAAGCGCCATCTAC,2.48
19,GATGATTGTTCTCCCAGCTGATGAATTTAGAACCTCGAGTAAACAAATTTTCCTAATCTTTCTGTTCAAGCGCCATCTAC,0.436
20,GATGATTGTTCTCCCAGCTGATGAATTAATACCCTCGAGTAAACAAATTTTCCTAATCTTTCTGTTCAAGCGCCATCTAC,0.406
21,GATGATTGTTCTCCCAGCTGATGAATTTGTGCACTCGAGTAAACAAATTTTCCTAATCTTTCTGTTCAAGCGCCATCTAC,2.89

row,Sequence,binding signal (RPM ratio (pull-down/input))
1,GATGATTGTTCTCCCAGCTGATGAATTCGGTTACTCGAGTAAACAAATTTTCCTAATCTTTCTGTTCAAGCGCCATCTAC,1.67
2,GATGATTGTTCTCCCAGCTGATGAATTATCGCTCTCGAGTAAACAAATTTTCCTAATCTTTCTGTTCAAGCGCCATCTAC,0.468
3,GATGATTGTTCTCCCAGCTGATGAATTCCGTGTTTCGAGTAAACAAATTTTCCTAATCTTTCTGTTCAAGCGCCATCTAC,1.28
4,GATGATTGTTCTCCCAGCTGATGAATTTCAGACCTCGAGTAAACAAATTTTCCTAATCTTTCTGTTCAAGCGCCATCTAC,0.225
5,GATGATTGTTCTCCCAGCTGATGAATTTGAACACTCGAGTAAACAAATTTTCCTAATCTTTCTGTTCAAGCGCCATCTAC,0.453
6,GATGATTGTTCTCCCAGCTGATGAATTAGTCCCGTCGAGTAAACAAATTTTCCTAATCTTTCTGTTCAAGCGCCATCTAC,0.495
7,GATGATTGTTCTCCCAGCTGATGAATTAGGTCTCTCGAGTAAACAAATTTTCCTAATCTTTCTGTTCAAGCGCCATCTAC,0.546
8,GATGATTGTTCTCCCAGCTGATGAATTATGCCCGTCGAGTAAACAAATTTTCCTAATCTTTCTGTTCAAGCGCCATCTAC,2.85
9,GATGATTGTTCTCCCAGCTGATGAATTAAAATTTTCGAGTAAACAAATTTTCCTAATCTTTCTGTTCAAGCGCCATCTAC,0.263
10,GATGATTGTTCTCCCAGCTGATGAATTAGGTCTTTCGAGTAAACAAATTTTCCTAATCTTTCTGTTCAAGCGCCATCTAC,0.452
11,GATGATTGTTCTCCCAGCTGATGAATTCGCCGGATCGAGTAAACAAATTTTCCTAATCTTTCTGTTCAAGCGCCATCTAC,0.188
12,GATGATTGTTCTCCCAGCTGATGAATTACCTGGGTCGAGTAAACAAATTTTCCTAATCTTTCTGTTCAAGCGCCATCTAC,0.183
13,GATGATTGTTCTCCCAGCTGATGAATTGAGGCAGTCGAGTAAACAAATTTTCCTAATCTTTCTGTTCAAGCGCCATCTAC,0.733
14,GATGATTGTTCTCCCAGCTGATGAATTCTATTAGTCGAGTAAACAAATTTTCCTAATCTTTCTGTTCAAGCGCCATCTAC,3.45
15,GATGATTGTTCTCCCAGCTGATGAATTGTTGCCATCGAGTAAACAAATTTTCCTAATCTTTCTGTTCAAGCGCCATCTAC,4.23
16,GATGATTGTTCTCCCAGCTGATGAATTGTTCGGATCGAGTAAACAAATTTTCCTAATCTTTCTGTTCAAGCGCCATCTAC,0.3
17,GATGATTGTTCTCCCAGCTGATGAATTATTTAGGTCGAGTAAACAAATTTTCCTAATCTTTCTGTTCAAGCGCCATCTAC,1.1
18,GATGATTGTTCTCCCAGCTGATGAATTTCCAAACTCGAGTAAACAAATTTTCCTAATCTTTCTGTTCAAGCGCCATCTAC,0.212
19,GATGATTGTTCTCCCAGCTGATGAATTCGTGTACTCGAGTAAACAAATTTTCCTAATCTTTCTGTTCAAGCGCCATCTAC,3.23
20,GATGATTGTTCTCCCAGCTGATGAATTGGGAGCCTCGAGTAAACAAATTTTCCTAATCTTTCTGTTCAAGCGCCATCTAC,0.446
21,GATGATTGTTCTCCCAGCTGATGAATTGGACAGCTCGAGTAAACAAATTTTCCTAATCTTTCTGTTCAAGCGCCATCTAC,0.259

row,Sequence,binding signal (RPM ratio (pull-down/input))
1,GATGATTGTTCTCCCAGCTGATGAATTAAGCTCATCGAGTAAACAAATTTTCCTAATCTTTCTGTTCAAGCGCCATCTAC,0.419
2,GATGATTGTTCTCCCAGCTGATGAATTATGTCGTTCGAGTAAACAAATTTTCCTAATCTTTCTGTTCAAGCGCCATCTAC,2.7
3,GATGATTGTTCTCCCAGCTGATGAATTTTACACGTCGAGTAAACAAATTTTCCTAATCTTTCTGTTCAAGCGCCATCTAC,0.344
4,GATGATTGTTCTCCCAGCTGATGAATTTCTTTGCTCGAGTAAACAAATTTTCCTAATCTTTCTGTTCAAGCGCCATCTAC,1.5
5,GATGATTGTTCTCCCAGCTGATGAATTAGACGACTCGAGTAAACAAATTTTCCTAATCTTTCTGTTCAAGCGCCATCTAC,0.3
6,GATGATTGTTCTCCCAGCTGATGAATTGTTTAGTTCGAGTAAACAAATTTTCCTAATCTTTCTGTTCAAGCGCCATCTAC,3.84
7,GATGATTGTTCTCCCAGCTGATGAATTCTGCAACTCGAGTAAACAAATTTTCCTAATCTTTCTGTTCAAGCGCCATCTAC,5.96
8,GATGATTGTTCTCCCAGCTGATGAATTGGCCTAGTCGAGTAAACAAATTTTCCTAATCTTTCTGTTCAAGCGCCATCTAC,0.259
9,GATGATTGTTCTCCCAGCTGATGAATTCTCTCGTTCGAGTAAACAAATTTTCCTAATCTTTCTGTTCAAGCGCCATCTAC,0.288
10,GATGATTGTTCTCCCAGCTGATGAATTTTTACTGTCGAGTAAACAAATTTTCCTAATCTTTCTGTTCAAGCGCCATCTAC,0.24
11,GATGATTGTTCTCCCAGCTGATGAATTTAGGTAGTCGAGTAAACAAATTTTCCTAATCTTTCTGTTCAAGCGCCATCTAC,0.605
12,GATGATTGTTCTCCCAGCTGATGAATTCGCTGAGTCGAGTAAACAAATTTTCCTAATCTTTCTGTTCAAGCGCCATCTAC,0.267
13,GATGATTGTTCTCCCAGCTGATGAATTCACGACTTCGAGTAAACAAATTTTCCTAATCTTTCTGTTCAAGCGCCATCTAC,0.437
14,GATGATTGTTCTCCCAGCTGATGAATTTGTTCGGTCGAGTAAACAAATTTTCCTAATCTTTCTGTTCAAGCGCCATCTAC,2.81
15,GATGATTGTTCTCCCAGCTGATGAATTAATACCGTCGAGTAAACAAATTTTCCTAATCTTTCTGTTCAAGCGCCATCTAC,0.429
16,GATGATTGTTCTCCCAGCTGATGAATTTGTACCCTCGAGTAAACAAATTTTCCTAATCTTTCTGTTCAAGCGCCATCTAC,2.74
17,GATGATTGTTCTCCCAGCTGATGAATTCTTGTGTTCGAGTAAACAAATTTTCCTAATCTTTCTGTTCAAGCGCCATCTAC,0.821
18,GATGATTGTTCTCCCAGCTGATGAATTGTTACTATCGAGTAAACAAATTTTCCTAATCTTTCTGTTCAAGCGCCATCTAC,1.1
19,GATGATTGTTCTCCCAGCTGATGAATTGCGGTGTTCGAGTAAACAAATTTTCCTAATCTTTCTGTTCAAGCGCCATCTAC,1.42
20,GATGATTGTTCTCCCAGCTGATGAATTTGGTTATTCGAGTAAACAAATTTTCCTAATCTTTCTGTTCAAGCGCCATCTAC,3.56
21,GATGATTGTTCTCCCAGCTGATGAATTTATAAGCTCGAGTAAACAAATTTTCCTAATCTTTCTGTTCAAGCGCCATCTAC,0.585

# Source: article PMC12820563
